“And” between values parts separate entries of the source, which are not always exact repeats. Equal entries are not always repeated. Among all 410,000 compounds or so, about 5,000 (1.2%) were called active. The shares of active, inactive and inconclusive entries below differ from those in the screen. The call rests on the fitted dose curve; in most records, active means well fitted inhibition curve with a large enough effect; inconclusive means small, poorly fitted or top-dose-only effect; inactive means no such curve, though single readings can be large or run the other way. A potency beside an inconclusive call is a rough fit, not a confirmed value.
Test: qHTS for Inhibitors of TGF-b; further: nearly all actives have a fitted effect of over 65% in size
Conditions: HepG2 CAGA-GFP TGF-b/SMAD3 reporter, GFP fluorescence, 18 h, TGF-beta stimulated, 500 pg/mL final; series mostly up to 46.1 µM; activity, negative = inhibition: at the top concentration
Summary of the method: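 Inhibition was scored as loss of TGF-beta-induced (500 pg/mL final, 18 hours, 37 degrees C) GFP in HEPG2 cells carrying a CAGA-GFP reporter, in DMEM with 1% FBS. Well GFP was summed per cell; Activity was normalised to unstimulated and stimulated DMSO wells, then concentration-response fitting.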
For `O=C(C1CCCN(S(=O)(=O)c2cccs2)C1)N1CCN(c2ccccc2F)CC1` (configuration not stated), the Potency was inconclusive: 15.8 µM [inhibitor, single point].
For `NC(c1csc(Nc2nccc(C(F)(F)F)n2)n1)C1CCCCC1` (configuration not stated), the Potency was inconclusive: 22.4 µM [inhibitor, single point].
In the case of `Cc1[nH]n(-c2ccccc2)c(=O)c1/C=N/NC(=O)c1cccc(F)c1`, the Potency is reported as inconclusive: 11.2 µM [inhibitor, partial curve, poor fit].
In the case of `O=C(Nc1ccc(F)cc1)N1CCCC(c2nc3c(nnn3Cc3ccccc3Cl)c(=O)[nH]2)C1` (configuration not stated), the Potency is reported as inconclusive: 35.5 µM [inhibitor, single point].
With `C=CC(=O)N=c1sc2ccccc2n1-c1ccccc1` the Potency was active: 10 µM.
With `CC1=C(C(=O)N(C(C)C)C(C)C)CC(CC(=O)NCc2ccco2)C(=O)N1Cc1ccccc1` (configuration not stated) the Potency was inconclusive: 12.6 µM [inhibitor, single point].
For `C/C=C/c1ccc(Oc2nnnn2-c2ccc(C(N)=O)cc2)c(OC)c1`, the Potency was inconclusive: 0.112 µM [inhibitor, full curve, poor fit].
In the case of `O=C(CC1C(=O)NCCN1Cc1cccc(F)c1F)NC1CCCCCC1` (configuration not stated), the Potency is reported as inconclusive: 5.01 µM [inhibitor, single point].
With `CCOc1ccc(-n2c(-c3ccc(OC)cc3)cc3c2CC(C)(C)CC3=O)cc1` the Potency was inconclusive: 25.1 µM [inhibitor, single point].
With `C=Cc1ccc(CSc2nc(-c3ccc(Cl)cc3)nc3c2Cc2c(CO)cnc(C)c2O3)cc1` the “activity, negative = inhibition” value was inactive: 2.08%.
With `COc1ccc(C(=Cc2ccccc2[N+](=O)[O-])C(=O)O)cc1` the “activity, negative = inhibition” value was inactive: 22.7%.
For `CCN1C(=O)/C(=C/c2cc(C)n(C)c2C)SC1=Nc1ccc(OC)cc1`, the Potency was inconclusive: 35.5 µM [inhibitor, partial curve, poor fit].
For `COc1ccc(CNC(=O)C(C)n2nc(C)c3c(C)n(-c4ccc(C)cc4)nc3c2=O)cc1` (configuration not stated), the Potency was inconclusive: 11.2 µM [inhibitor, partial curve, poor fit].
For `CN(C)c1nc(N/N=C/c2ccccc2O)nc(Nc2ccc(F)cc2)n1`, the Potency was active: 12.6 µM.
With `Cc1ccc(CN2CCN(/N=C/C=C/c3ccccc3[N+](=O)[O-])CC2)cc1` the Potency was inconclusive: 10 µM [inhibitor, partial curve, poor fit].
With `Cc1cccc(CC(C)NC(=O)c2cc(COc3ccc(C)c(C)c3)on2)n1` (configuration not stated) the Potency was inconclusive: 28.2 µM [inhibitor, single point].
With `O=c1sc2ccccc2n1COc1ccc(Cl)cc1` the Potency was inconclusive: 35.5 µM [inhibitor, single point].
In the case of `O=C(NCc1ccco1)c1cc(-c2ccccc2)c(N2CCOCC2)s1`, the Potency is reported as inconclusive: 8.91 µM [inhibitor, partial curve, poor fit].
For `S=C(Nc1cccc(Cl)c1)Nc1ccccc1Oc1ccccc1`, the Potency was inconclusive: 35.5 µM [inhibitor, single point].
In the case of `Cc1ccc(C(=O)/C=C/N(C)C)cn1`, the Potency is reported as inconclusive: 1.58 µM [inhibitor, partial curve].
With `Cc1cccc(OCC(=O)N/N=C/c2cn[nH]c2-c2ccc(Cl)c(Cl)c2)c1` the Potency was inconclusive: 11.2 µM [inhibitor, partial curve].
For `CCCCN(CCCC)S(=O)(=O)c1ccc(NC(=O)c2c(-c3ccccc3)noc2C)cc1`, the Potency was inconclusive: 12.6 µM [inhibitor, partial curve].
With `CCOC(=O)N1CCN(C(=S)NC(=O)c2cccc(OC)c2)CC1` the “activity, negative = inhibition” value was inactive: -1.21%.
With `C/C(CC(=O)NC1CCCCC1)=N\NC(=O)c1ccc(Br)cc1` the “activity, negative = inhibition” value was inactive: 23.7%.
In the case of `COc1ccc(N(C)S(=O)(=O)c2cccc(C(=O)NC3=NCCS3)c2)cc1`, the “activity, negative = inhibition” value is reported as inactive: 16.1%.
In the case of `CC1=C(C(=O)OCc2ccccc2)C(c2ccc(Cl)cc2)NC(=O)N1C` (configuration not stated), the Potency is reported as inconclusive: 14.1 µM [inhibitor, single point].
With `NS(=O)(=O)c1ccc(Sc2ccc3c(c2)CCC3)nc1` the Potency was inconclusive: 20 µM [inhibitor, single point].
For `O=C(c1nc2ccc(Cl)cn2c1CNCC[C@@H]1C[C@@H]2C=C[C@H]1C2)N1CCCCCCC1`, the Potency was inconclusive: 20 µM [inhibitor, single point].
With `COc1ccc(C(=O)NN)cc1` the “activity, negative = inhibition” value was inactive: -0.899%.
With `Cc1oc(-c2ccc(C(=O)N(C)Cc3ccccc3)cc2)nc1CN1CCc2ccccc21` the Potency was inconclusive: 11.2 µM [inhibitor, partial curve, poor fit].
With `Cn1c(-c2ccc(Br)o2)nc2ccccc21` the Potency was inconclusive: 35.5 µM [inhibitor, single point] and inconclusive: 3.55 µM [inhibitor, single point].
In the case of `CC(=O)N1c2ccc(S(=O)(=O)NCCc3cccc(C)c3)cc2CC1C` (configuration not stated), the “activity, negative = inhibition” value is reported as inactive: -28.4%.
With `Cc1nc(-c2ccc(F)cc2)c(CC(=O)N2CCN(S(=O)(=O)c3cccc([N+](=O)[O-])c3)CC2)s1` the “activity, negative = inhibition” value was inactive: 1.75%.
For `CC1(CCc2ccccc2)NC(=O)N(CC(=O)N2CCc3ccccc32)C1=O` (configuration not stated), the Potency was inconclusive: 20 µM [inhibitor, single point].
For `Cc1nc2c(sc3nc(N4CCOCC4)c4c(c32)CC(C)(C)OC4)c(-c2ccccc2)c1C(=O)O`, the Potency was inconclusive: 35.5 µM [inhibitor, single point].
In the case of `Cc1nnsc1SCCNC(=O)c1ccc(F)cc1`, the “activity, negative = inhibition” value is reported as inactive: 2.36%.
For `CCOc1cccc(NC(=O)CSc2ncc(-c3ccc(Cl)cc3)[nH]2)c1`, the Potency was inconclusive: 20 µM [inhibitor, single point].
With `Cc1cccc(NN=C2c3ccccc3-c3ccccc32)c1` the Potency was inconclusive: 12.6 µM [inhibitor, single point].
With `Cc1oc(-c2ccccc2F)nc1CN1CCC(C(=O)NCc2ccco2)CC1` the “activity, negative = inhibition” value was inactive: 3.25%.
With `CCN1C(C(=O)c2ccccc2)=C(OC(=O)c2ccc(Cl)cc2)c2ccccc2S1(=O)=O` the Potency was active: 11.2 µM.
In the case of `CC12CCC(C(=O)N(CCCN3CCN(Cc4ccccc4)CC3)C1=O)C2(C)C` (configuration not stated), the Potency is reported as inconclusive: 3.98 µM [inhibitor, partial curve, poor fit].
With `Cc1nc2c(-c3ccc(F)cc3)c(C)[nH]n2c(=O)c1Cl` the Potency was inconclusive: 12.6 µM [inhibitor, partial curve].

From PubChem BioAssay AID588855 (National Center for Advancing Translational Sciences (NCATS), 2011)
On the % scale 0 is the no-effect control and ±100 the full control effect; potency means the concentration at half of the fitted maximal effect; tags describe the fitted curve by direction and shape.
